Test results published in PubChem BioAssay AID463173 (ICCB-Longwood Screening Facility, Harvard Medical School, 2010).
Screen size: about 52,000 compounds; about 1,700 (3.3%) were called active. Cut-off read from the data, not from the text of the source: active = survival mostly below about 52% (no sharp cut-off); inactive = mostly above about 56%. Some of the results follow.

Each compound was assayed on Wild type (assay: growth inhibition of S. aureus wild type versus tarO mutant, primary screen, teichoic acid synthesis inhibitors, RN4220, OD600 (AID 463173)). Conditions: S. aureus RN4220 wild type/DeltatarO growth, OD600, 18 h, hits give low values, screened at 18.75 µg/mL (by protocol).

Compound	survival
COc1ccc(Cl)cc1NC(=O)c1cc(=O)c2cc(C)cc(C)c2o1	inactive: 87%
CCCC(c1nnnn1C(C)(C)C)N(Cc1ccco1)Cc1cc2ccc(C)cc2[nH]c1=O (stereo unspecified)	inactive: 99%
CCc1nnc(SC(CC)C(=O)NCCOC)c2cc3occc3n12 (stereo unspecified)	inactive: 105%
CCc1cccc(NC(=O)Cn2c(=O)n(Cc3ccccc3)c(=O)c3c(C)c(C(=O)N(C)C)sc32)c1	inactive: 78%
CCOc1ccccc1N(C)C(=O)c1cc(S(=O)(=O)NCc2ccc(C)cc2)ccc1F	inactive: 119%
CN1CCN(C(=O)c2cnn(-c3ccccc3)c2C2CCN(C(=O)OC(C)(C)C)CC2)CC1	inactive: 136%
COc1ccc(-c2nc3ccccc3o2)cc1NC(=O)COc1c(C)cc(Cl)cc1Cl	inactive: 75%
Cc1ccc(CCNC(=O)Cn2ncc3c(=O)oc4ccccc4c32)cc1	inactive: 137%
Cc1ccccc1-c1nc(CS(=O)(=O)CC(=O)Nc2c(C)cccc2C)c(C)o1	inactive: 143%
CCc1ccc2c(c1)c(=O)c(S(=O)(=O)c1ccccc1)cn2CC(=O)Nc1cc(C)ccc1C	inactive: 82%
COc1cc(NC(=O)CN(C)S(=O)(=O)c2ccc3c(c2)CCCC(=O)N3)cc(OC)c1OC	inactive: 81%
CCC(=O)C1=C(c2cccc([N+](=O)[O-])c2)N(C(=O)CC)n2c(nnc2C2CCCCC2)S1	inactive: 63%
Cc1cccc(-c2nc3c4ccccc4n(CC(=O)Nc4cccc(F)c4)c(=O)n3n2)c1	inactive: 80%
O=S1(=O)N=C(SCCO)c2ccccc21	inactive: 112%
Cc1ccc(NC(=O)c2nc[nH]c2C(=O)N2CCCCC2)c(C(=O)c2ccccc2)c1	inactive: 110%
CC(C)(C)OC(=O)N1CCC(c2c(C(=O)N3CCN(c4ccccc4F)CC3)cnn2C(C)(C)C)CC1	inactive: 54%
CCOC(=O)C1CCN(c2csc3ccc(C)cc3c2=O)CC1	inactive: 94%
COC(=O)c1cc2sc(C)cc2n1Cc1nc(-c2cccc(Br)c2)oc1C	inactive: 81%
O=C(NCc1ccccn1)c1cc2n(n1)C(C(F)(F)F)CC(c1ccco1)N2 (stereo unspecified)	inactive: 108%
N#C/C(=C/c1ccccc1Cl)c1nc(-c2cc3ccccc3oc2=O)cs1	inactive: 82%
O=C1SCCc2c1n(Cc1ccccc1)c1ccccc21	inactive: 116%
O=C(/C=C/c1ccco1)N/C(=C\c1ccc2c(c1)OCO2)C(=O)N1CCCCCC1	inactive: 123%

Compound	survival
COC(=O)c1cc(NC(=O)Cn2nc(-c3ccccc3)c3c(c2=O)CCCC3)cc(C(=O)OC)c1	inactive: 55%
O=C(Cn1c(=O)n(CC2CCCO2)c(=O)c2ccccc21)Nc1ccc(F)cc1F (stereo unspecified)	inactive: 87%
COc1cc(C)ccc1OCCSc1nc2ccc(NC(=O)c3ccccc3F)cc2s1	inactive: 118%
Fc1ccc(NCc2ccccc2-c2nnc(-c3ccccc3Cl)o2)cc1Cl	inactive: 89%
CCc1ccc(-c2cc(C)no2)cc1S(=O)(=O)NCc1ccc(OC)cc1	inactive: 73%
COc1ccccc1CC(=O)Nc1c[nH]c(=O)[nH]c1=O	inactive: 99%
CCOc1ccc(C(c2c(O)cc(C)n(CCOC)c2=O)N2CCN(c3ccc(F)cc3)CC2)cc1 (stereo unspecified)	inactive: 70%
Cc1cccc2cc(-c3nc(-c4cccs4)no3)c(=O)oc12	inactive: 96%
Cc1sc2ncn(CC(=O)N3CCN(c4cccc(Cl)c4)CC3)c(=O)c2c1S(=O)(=O)N1CCC(C)CC1	inactive: 143%
CCN(CC)C(=O)Cn1c(=O)n(CCCCCC(=O)NCc2ccc(C)cc2)c(=O)c2sccc21	inactive: 85%
CCOc1ccc(-n2c(=O)c3c(C)c(C)sc3n(Cc3ccc(C(C)(C)C)cc3)c2=O)cc1	active: 19%
CC(=O)N1CCc2c(sc3c2c(=O)n(-c2cc(Cl)ccc2C)c(=O)n3C)C1	inactive: 119%
CCN1C(=O)Cc2cc(S(=O)(=O)N3CCOCC3)ccc21	inactive: 90%
CCOC(=O)c1cc2sccc2n1CC(=O)NC(C)C	inactive: 100%
COc1ccc(Cl)cc1NC(=O)COc1cccc2c(=O)n(C)ccc12	inactive: 70%
COC(=O)c1ccc(NC(=O)CN(C)S(=O)(=O)c2ccc3c(c2)CCCC(=O)N3)cc1	inactive: 55%
CCCCNC(=O)Cn1nc(N2CCN(c3ccccc3OC)CC2)ccc1=O	inactive: 80%
CCCCn1c(CNc2ccc(C)cc2)nnc1SCC(=O)OC	inactive: 120%
CC1=NN(c2ccc(N)cc2)C(=O)C1	inactive: 106%
COc1cccc(C(=O)N2CCc3cc(OC)c(OC)cc3C2COc2ccc3c(C)cc(=O)oc3c2)c1 (stereo unspecified)	inactive: 70%
CCn1cc(S(=O)(=O)c2cc(C)cc(C)c2)c(=O)c2cc(F)c(N3CCN(c4ccccc4)CC3)cc21	inactive: 63%
CCOc1ccc(-c2cc(CCCC(=O)NCCc3ccc(SC)cc3)no2)cc1	inactive: 69%

Compound	survival
COc1ccc(OCC(=O)N2CCN(C(=O)c3cccc(OC)c3OC)CC2)cc1	inactive: 80%
CC(C)Oc1ccc2ccc(=O)oc2c1	inactive: 104%
CCCCN(C(=O)CCn1c(=O)oc2ccccc21)c1ccccc1	inactive: 71%
COc1cc(NC(=O)c2noc3c2CC(C(C)(C)C)CC3)cc(OC)c1OC (stereo unspecified)	inactive: 68%
CC1CCCCN1C(=O)c1ccccc1NS(=O)(=O)c1ccc(F)cc1 (stereo unspecified)	inactive: 107%
COCCn1c(C)cc(O)c(C(c2ccccc2Cl)N2CCN(c3ccccc3)CC2)c1=O (stereo unspecified)	inactive: 79%
O=C(NCC(c1ccco1)S(=O)(=O)c1cccs1)c1c(F)cccc1F (stereo unspecified)	inactive: 66%
CCN(CC)C(=O)c1sc2c(c1C)c(=O)n(Cc1ccccc1)c(=O)n2Cc1c(C)cc(C)cc1C	inactive: 65%
Cc1nn(-c2ccc(N3CCCC3)nn2)c(C)c1CCC(=O)N1CCN(c2ccc(F)cc2)CC1	inactive: 128%
O=C(NCC(c1cccnc1)N1CCc2ccccc21)c1cccc(F)c1 (stereo unspecified)	inactive: 79%
CCOC(=O)c1ccc(NC(=O)c2c(NCc3ccc(OC)c(OC)c3OC)sc3c2CCC(C)C3)cc1 (stereo unspecified)	inactive: 124%
Cc1cccc(NC(=O)Cn2c(=O)n(CC3CCC(C(=O)NCCc4ccccc4)CC3)c(=O)c3ccccc32)c1C (stereo unspecified)	inactive: 74%
Cc1ccc2[nH]c(C)c(CCNC(=O)c3cc4cc(Br)ccc4oc3=O)c2c1	inactive: 71%
Cc1ccc(NS(=O)(=O)c2ccc3[nH]c4c(c3c2)CCCCCC4)cc1C	active: -3%
CCOc1ccc(S(=O)(=O)Nc2ccc3c(c2)CCCN3S(=O)(=O)c2ccc(C)cc2)cc1	inactive: 78%
Cc1ccc(CNC(=O)c2cc(NS(=O)(=O)c3ccc(C)cc3)ccn2)cc1	inactive: 66%
CCOC(=O)c1cc(S(=O)(=O)N(C)c2ccccc2)[nH]n1	inactive: 133%
O=c1cc(Nc2cccc(Br)c2)[nH]c(=O)[nH]1	inactive: 105%
CCOc1ccccc1CNC(=O)CCCn1c(=O)c2cccn2c2ccc(F)cc21	inactive: 52%
COC(=O)c1sc2cccc(F)c2c1S(=O)(=O)NCc1ccccc1Cl	inactive: 78%
COc1ccc(NC(=O)CN(C)S(=O)(=O)c2ccc3nc(C)sc3c2)cc1Cl	inactive: 86%
Cn1c(C(=O)NCc2ccccc2F)cc2cc(S(=O)(=O)N3CCCCC3)ccc21	inactive: 70%

Compound	survival
Cn1c(Oc2cccc(Cl)c2)nc2c1c(=O)n(Cc1ccccc1Cl)c(=O)n2C	inactive: 85%
Cc1cccc(Nc2nnc(-c3ccc(C)c(S(=O)(=O)N4CCOCC4)c3)c3ccccc23)c1	inactive: 86%
CCCOc1ccc(C(=O)Nc2ccc(NC(=O)c3ccc(Br)cc3)cc2)cc1	inactive: 79%
COc1ccc(CCNCc2c(C(=O)O)c(C)n(Cc3cccc(C)c3)c2C)cc1OC	inactive: 87%
Cc1nc(-c2ccccc2)sc1C(N)=O	inactive: 113%
Cc1cc(C)cc(NC(=O)C2CCN(c3nnc(-n4c(C)ccc4C)s3)CC2)c1	inactive: 82%
CCOC(=O)c1scc(-c2ccc(C)cc2)c1S(=O)(=O)N1CCN(c2ccccc2)CC1	inactive: 80%
CCc1cccc(NC(=O)CN(C)S(=O)(=O)c2ccc3c(c2)n(C)c(=O)c(=O)n3C)c1	inactive: 71%
CCOc1cc(C(=O)Nc2ccc3nc(N4CCN(C)CC4)cc(C)c3c2)cc(OCC)c1OCC	inactive: 134%
COc1ccc(-n2c(SCC(=O)Nc3ccc4c(c3)OCO4)nc3c([nH]c4ccccc43)c2=O)cc1	inactive: 81%
CC(=O)c1ccc(NS(=O)(=O)c2ccc3[nH]c(=O)[nH]c3c2)cc1	inactive: 95%
COC(=O)c1ccc(C=Nc2ccc3oc(-c4ccc(N(C)C)cc4)nc3c2)cc1	inactive: 108%
COc1ccc(Nc2cc(C)c3cc(NC(=O)COc4cccc(C)c4)ccc3n2)cc1	inactive: 81%
COc1cccc(CNC(=O)C2=C(C)C(=O)OC23CCCCCC3)c1	inactive: 79%
Cc1cccc(N2CCN(C(=O)CCNS(=O)(=O)c3ccc4c(c3)CCN4C(=O)C3CC3)CC2)c1C	inactive: 73%
COc1ccc2nc(NC(=O)c3nc(S(=O)(=O)Cc4ccc(C)cc4)ncc3Cl)sc2c1	inactive: 96%
COc1ccc(Cl)cc1NC(=O)c1noc2c1CCc1ccccc1-2	inactive: 84%
O=C(CN1C(=O)c2ccccc2Sc2ncccc21)Nc1cccc(C(F)(F)F)c1	inactive: 85%
Cc1cc(C)c(Cn2cnc3nc4c(cc3c2=O)CCCC4)c(C)c1	inactive: 70%
CCOc1ccccc1NC(=O)CN(c1cc(C)cc(C)c1)S(=O)(=O)c1c(C)nn(C)c1C	inactive: 69%
